In the supplement of paper PMC11417369:
± gives the standard deviation of the averaged measurements. The list shows a part of the results.

These sequences were tested on PfAP2-G AP2 domain (GST-tagged) (assay: gcPBM binding intensity (ln(normalized median fluorescence intensity)); higher = stronger DNA binding).
How it was run: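 Plasmodium falciparum DNA-binding domains carrying a GST tag were expressed in E. coli and applied for 1 h, at about 25 μg on average, to an Agilent 4 × 180k array. The array held primer-extended double-stranded 36-bp intergenic genomic probes together with negative controls, and binding took place in 1× PBS with 1% milk, 0.2 mg/ml BSA, 0.5% salmon testes DNA and 0.03% Triton X-100. An Alexa488 anti-GST antibody detected bound protein, and the array was scanned at 488 nm. Binding intensity is taken as the highest Masliner-normalised natural-log median intensity across replicate spots of either probe orientation.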
In the case of “TTTGTATGATCATAAAGTACTAATTTACATTCAGCA [XGTACX_site8596]”, the “gcPBM binding intensity (ln)” value is reported as 10.8 ± 0.49.
With “CAAATTTTTAAAAATGCATGTTCATCCATCCCATAT [TGCATGCA_site467]” the “gcPBM binding intensity (ln)” value was 10.2 ± 0.13.
“AAAAATATATATATATTTCTTCTTTGTTAAAATGTA [CACACA_negctrl_site1459]” was tested, and the “gcPBM binding intensity (ln)” value was 9.62 ± 0.099.
“TTTTCATTCTTATATAAATATTATTTTATATAAAAT [GTGCAC_negctrl_site674]” was tested, and the “gcPBM binding intensity (ln)” value was 9.86 ± 0.071.
With “ATATATGAAAATATATGTACACAACATATAAAATAG [XGTACX_site5132]” the “gcPBM binding intensity (ln)” value was 11.4 ± 0.83.
For “AATTATATACCATGCACACAAATATTCATACAGGAA [CACACA_site4057]”, the “gcPBM binding intensity (ln)” value was 10.1 ± 0.16.
In the case of “GTAGAATCAGTATTCACACATAAATGTATCCAAATG [CACACA_site5395]”, the “gcPBM binding intensity (ln)” value is reported as 10.3 ± 0.25.
In the case of “TTTTGGATACTTCATTTGTCCTGTTTTTTTTTTTTA [CACACA_negctrl_site399]”, the “gcPBM binding intensity (ln)” value is reported as 10.7 ± 0.37.
For “TTTTAAAAAATAAAATATTATTGAAGTAAAATATGA [CACACA_negctrl_site758]”, the “gcPBM binding intensity (ln)” value was 9.605 ± 0.007.
For “TAGAAACTATGTAATGCACACCAAAATAAAATTATT [CACACA_site8578]”, the “gcPBM binding intensity (ln)” value was 10.07 ± 0.035.
In the case of “TTTTTTTTTTTTTAAACATGCAAAATATATAATTTT [TGCATGCA_site633]”, the “gcPBM binding intensity (ln)” value is reported as 9.77 ± 0.45.
For “TAATATATCTATAATACACACTATTCTAATCACATA [CACACA_site6731]”, the “gcPBM binding intensity (ln)” value was 9.895 ± 0.092.
With “AAAATATATCAAAACACACTCACATATAATACTTAC [CACACA_site6031]” the “gcPBM binding intensity (ln)” value was 9.995 ± 0.007.
With “TATATACTTATATACTGTACTCATCATCTTTTAAAG [XGTACX_site6099]” the “gcPBM binding intensity (ln)” value was 11.6 ± 0.79.
In the case of “AACACACACATATATATATATATATATATATATATA [GTGCAC_negctrl_site573]”, the “gcPBM binding intensity (ln)” value is reported as 9.83 ± 0.21.
“TTTTTAATATTGTATGCATGTCGTAATAAAAAATTT [TGCATGCA_site259]” was tested, and the “gcPBM binding intensity (ln)” value was 10.2 ± 0.27.
For “ATAATAAACATATATGTACACACATATACATATATA [CACACA_site8924]”, the “gcPBM binding intensity (ln)” value was 11.3 ± 0.94.
“TTGAACCCCACTAACACACACACGCACGCTCAGAAA [CACACA_site2983]” was tested, and the “gcPBM binding intensity (ln)” value was 10.3 ± 0.37.
“TGCTATTTCATATTCTGTACTAAAACAAGATAATAA [XGTACX_site3852]” was tested, and the “gcPBM binding intensity (ln)” value was 11 ± 0.7.
“ATATTAATTATAACTTGTACGTAAAAGGAAAACAAT [XGTACX_site3269]” was tested, and the “gcPBM binding intensity (ln)” value was 11.6 ± 0.95.
With “ATATACTATTAACCACATATGTGTGTTAATTTATAT [GTGCAC_negctrl_site315]” the “gcPBM binding intensity (ln)” value was 10.1 ± 0.27.
In the case of “ATCTACATATATTATTGTACATTGTTAAAAATTTAT [XGTACX_site7769]”, the “gcPBM binding intensity (ln)” value is reported as 10.8 ± 0.46.
For TTTCGTAATATGCGTGTGCACAATGAGTCCATATCT, the “gcPBM binding intensity (ln)” value was 11.2 ± 0.81.
In the case of “GTTCAAAATATGAACACACACATATATATATATATA [CACACA_site2057]”, the “gcPBM binding intensity (ln)” value is reported as 10.1 ± 0.31.
For “TTTTTTTTTTTTTGGGGTACATTTTAATTAATATTA [XGTACX_site4866]”, the “gcPBM binding intensity (ln)” value was 11.4 ± 0.86.
In the case of “TAAAATATAATTAGCACACATATATAAAATATATAT [CACACA_site4093]”, the “gcPBM binding intensity (ln)” value is reported as 9.87 ± 0.18.
With “GTTGTTTCTATAAATTGTACTTAAATATAATTATAT [XGTACX_site585]” the “gcPBM binding intensity (ln)” value was 11.2 ± 0.72.
With “ATATATTGTATGTGCTCACACATGTTTCGATATTAT [CACACA_site4336]” the “gcPBM binding intensity (ln)” value was 10.2 ± 0.15.
“GTAAATATGTTTATTAGTACACATATGAAAATAAAT [XGTACX_site5820]” was tested, and the “gcPBM binding intensity (ln)” value was 11.3 ± 0.77.
“ACGCACGAAATAAATACATGCATATTGTAAAAATTA [TGCATGCA_site310]” was tested, and the “gcPBM binding intensity (ln)” value was 9.845 ± 0.092.
With “GGGAATATATTCAATTGTACATTCTTATTTTATCCA [XGTACX_site8480]” the “gcPBM binding intensity (ln)” value was 10.7 ± 0.28.
For “TCTTTTTTTTTACATACTTTTTTCCTTTTTTTTTTA [CACACA_negctrl_site1429]”, the “gcPBM binding intensity (ln)” value was 9.99 ± 0.11.
In the case of “TATATATATATTAGTGGTACAAGATTTTTTTCTTTT [XGTACX_site4619]”, the “gcPBM binding intensity (ln)” value is reported as 11.2 ± 0.74.
In the case of “TATAAACACCCATATAAACACACATACATACATACA [CACACA_site8791]”, the “gcPBM binding intensity (ln)” value is reported as 10.6 ± 0.33.
With “TATTTAATGCAAAAACGTACATAAATAACATTCACA [XGTACX_site5356]” the “gcPBM binding intensity (ln)” value was 11.3 ± 0.68.
With “ATATTATTTATAAGTTGTACGGTATAATATAATATA [XGTACX_site5371]” the “gcPBM binding intensity (ln)” value was 10.8 ± 0.54.
With “AAAAAATATATATTAACACACACACTAATAAAAAAA [CACACA_site8366]” the “gcPBM binding intensity (ln)” value was 10.1 ± 0.11.
With “AAAATTTTTTACTTTACACACATTTTGTATATTTTG [CACACA_site1730]” the “gcPBM binding intensity (ln)” value was 9.98 ± 0.23.
For “TCTTGTAGATATATTTGTACATATATTTATGGGTAT [XGTACX_site1139]”, the “gcPBM binding intensity (ln)” value was 10.9 ± 0.47.
In the case of “CTAGACTTTTTACAATGTACATATTTATGTATTATT [XGTACX_site1833]”, the “gcPBM binding intensity (ln)” value is reported as 11 ± 0.65.
In the case of “TTTTTTCATAAATAATGTACATATATATATATATAT [XGTACX_site3620]”, the “gcPBM binding intensity (ln)” value is reported as 11 ± 0.56.
With “AAAGGTGTATATAATACACACGTGTGATTAAAATTG [CACACA_site8104]” the “gcPBM binding intensity (ln)” value was 10.13 ± 0.064.
“TTTCAAAAAAATAGCTATATTTATATTAATGCACGA [TGCATGCA_negctrl_site63]” was tested, and the “gcPBM binding intensity (ln)” value was 10 ± 0.3.
“TATATAACTGTCTTCAGTACACAATAAATAAAAATA [XGTACX_site8856]” was tested, and the “gcPBM binding intensity (ln)” value was 11.3 ± 0.93.
